# Measured values taken from the supplement of paper PMC8728848.
# The other results are listed elsewhere or left out.
# B1: Als3-41 (Candida albicans) (protein)
# chain: KTITGVFNSFNSLTWSNAATYNYKGPGTPTWNAVLGWSLDGTSASPGDTFTLNMPCVFKFTTSQTSVDLTAHGVKYATCQFQAGEEFMTFSTLTCTVSNTLTPSIKALGTVTLPLAFNVGGTGSSVDLEDSKCFTAGTNTVTFNDGGKKISINVDFERSNVDPKGYLTDSRVIPSLNKVSTLFVAPQCANGYTSGTMGFANTYGDVQIDCSNIHVGITKGLNDWNYPVSSESFSYTKTCSSNGIFITYKNVPAGYRPFVDAYISATDVNSYTLSYANEYTCAGGYWQRAPFTLRWTGYRNSDAGSNGIVIVATTRTVTDSTTAVTTLPFDPNRDKTKTIEILKPIPTTTITTSYVGVTTSYLTKTAPIGETATVIVD
# How the values were obtained:
# Assay in all cases: glycan array binding signal (z-score within array); higher = stronger binding
# Settings in all cases: glycan notation: IUPAC condensed, linker removed
# Fuc(a1-2)Gal = biological target: Fuc(a1-2)Gal
# How it was run: (§1)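 The binding signal is a Z-score computed within each array. Data were drawn from 3228 arrays in the Consortium for Functional Glycomics database, restricted to those with a known protein sequence. Scores were averaged over arrays of the same protein sequence at different concentrations or buffers, and over linkers, and negative values can be taken as non-binding.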
# Fuc(a1-2)Gal(b1-3)GalNAc = biological target: Fuc(a1-2)Gal(b1-3)GalNAc
# How it was run: as §1
# [1] = biological target: Fuc(a1-2)Gal(b1-3)GalNAc(a1-3)[Fuc(a1-2)]Gal(b1-4)Glc
# How it was run: as §1
# [2] = biological target: Fuc(a1-2)Gal(b1-3)GalNAc(a1-3)[Fuc(a1-2)]Gal(b1-4)GlcNAc
# How it was run: as §1
# [3] = biological target: Fuc(a1-2)Gal(b1-3)GalNAc(b1-3)Gal
# How it was run: as §1
# [4] = biological target: Fuc(a1-2)Gal(b1-3)GalNAc(b1-3)Gal(a1-4)Gal(b1-4)Glc
# How it was run: as §1
# [5] = biological target: Fuc(a1-2)Gal(b1-3)GalNAc(b1-4)[Neu5Ac(a2-3)]Gal(b1-4)Glc
# How it was run: as §1
# Fuc(a1-2)Gal(b1-3)GlcNAc = biological target: Fuc(a1-2)Gal(b1-3)GlcNAc
# How it was run: as §1
# [6] = biological target: Fuc(a1-2)Gal(b1-3)GlcNAc(b1-2)Man(a1-3)[Fuc(a1-2)Gal(b1-3)GlcNAc(b1-2)Man(a1-6)]Man(b1-4)GlcNAc(b1-4)GlcNAc
# How it was run: as §1
# [7] = biological target: Fuc(a1-2)Gal(b1-3)GlcNAc(b1-2)Man(a1-3)[Fuc(a1-2)Gal(b1-3)GlcNAc(b1-2)Man(a1-6)]Man(b1-4)GlcNAc(b1-4)[Fuc(a1-6)]GlcNAc
# How it was run: as §1
# [8] = biological target: Fuc(a1-2)Gal(b1-3)GlcNAc(b1-3)Gal(b1-4)Glc
# How it was run: as §1
# [9] = biological target: Fuc(a1-2)Gal(b1-3)GlcNAc(b1-3)GalNAc
# How it was run: as §1
# [10] = biological target: Fuc(a1-2)Gal(b1-3)GlcNAc(b1-3)[Fuc(a1-2)Gal(b1-3)GlcNAc(b1-6)]GalNAc
# How it was run: as §1
# [11] = biological target: Fuc(a1-2)Gal(b1-3)GlcNAc(b1-3)[Gal(b1-4)GlcNAc(b1-6)]Gal(b1-4)Glc
# How it was run: as §1
# [12] = biological target: Fuc(a1-2)Gal(b1-3)GlcNAc(b1-3)[Neu5Ac(a2-6)Gal(b1-4)GlcNAc(b1-6)]Gal(b1-4)Glc
# How it was run: as §1
# [13] = biological target: Fuc(a1-2)Gal(b1-3)GlcNAc6S
# How it was run: as §1
# [14] = biological target: Fuc(a1-2)Gal(b1-3)[Fuc(a1-4)]GlcNAc
# How it was run: as §1
# [15] = biological target: Fuc(a1-2)Gal(b1-3)[Fuc(a1-4)]GlcNAc(b1-2)Man(a1-3)[Fuc(a1-2)Gal(b1-3)[Fuc(a1-4)]GlcNAc(b1-2)Man(a1-3)]Man(b1-4)GlcNAc(b1-4)GlcNAc
# How it was run: as §1
# [16] = biological target: Fuc(a1-2)Gal(b1-3)[Fuc(a1-4)]GlcNAc(b1-2)Man(a1-3)[Fuc(a1-2)Gal(b1-3)[Fuc(a1-4)]GlcNAc(b1-2)Man(a1-6)]Man(b1-4)GlcNAc(b1-4)[Fuc(a1-6)]GlcNAc(b1-4)[Fuc(a1-6)]GlcNAc
# How it was run: as §1
# [17] = biological target: Fuc(a1-2)Gal(b1-3)[Fuc(a1-4)]GlcNAc(b1-3)[Fuc(a1-3)[Gal(b1-4)]GlcNAc(b1-6)]Gal(b1-4)Glc
# How it was run: as §1
# [18] = biological target: Fuc(a1-2)Gal(b1-3)[Fuc(a1-4)]GlcNAc(b1-3)[Gal(b1-4)GlcNAc(b1-6)]Gal(b1-4)Glc
# How it was run: as §1
# [19] = biological target: Fuc(a1-2)Gal(b1-4)Fuc(a1-3)]GlcNAc(b1-2)Man(a1-3)[Fuc(a1-2)Gal(b1-4)[Fuc(a1-3)]GlcNAc(b1-2)Man(a1-6)]Man(b1-4)GlcNAc(b1-4)GlcNAc
# How it was run: as §1
# Fuc(a1-2)Gal(b1-4)Glc = biological target: Fuc(a1-2)Gal(b1-4)Glc
# How it was run: as §1
# Fuc(a1-2)Gal(b1-4)Glc6S = biological target: Fuc(a1-2)Gal(b1-4)Glc6S
# How it was run: as §1
# Fuc(a1-2)Gal(b1-4)GlcNAc = biological target: Fuc(a1-2)Gal(b1-4)GlcNAc
# How it was run: as §1
# [20] = biological target: Fuc(a1-2)Gal(b1-4)GlcNAc(b1-2)Man
# How it was run: as §1
# [21] = biological target: Fuc(a1-2)Gal(b1-4)GlcNAc(b1-2)Man(a1-3)[Fuc(a1-2)Gal(b1-4)GlcNAc(b1-2)Man(a1-6)]Man(b1-4)GlcNAc(b1-4)GlcNAc
# How it was run: as §1
# [22] = biological target: Fuc(a1-2)Gal(b1-4)GlcNAc(b1-2)Man(a1-3)[Fuc(a1-2)Gal(b1-4)GlcNAc(b1-2)Man(a1-6)]Man(b1-4)GlcNAc(b1-4)[Fuc(a1-6)]GlcNAc
# How it was run: as §1
# [23] = biological target: Fuc(a1-2)Gal(b1-4)GlcNAc(b1-2)[Fuc(a1-2)Gal(b1-4)GlcNAc(b1-4)]Man(a1-3)[Fuc(a1-2)Gal(b1-4)GlcNAc(b1-2)Man(a1-6)]Man(b1-4)GlcNAc(b1-4)GlcNAc
# How it was run: as §1
# [24] = biological target: Fuc(a1-2)Gal(b1-4)GlcNAc(b1-3)Gal(b1-4)GlcNAc
# How it was run: as §1
# [25] = biological target: Fuc(a1-2)Gal(b1-4)GlcNAc(b1-3)Gal(b1-4)GlcNAc(b1-2)Man(a1-3)[Fuc(a1-2)Gal(b1-4)GlcNAc(b1-3)Gal(b1-4)GlcNAc(b1-2)Man(a1-6)]Man(b1-4)GlcNAc(b1-4)GlcNAc
# How it was run: as §1
# [26] = biological target: Fuc(a1-2)Gal(b1-4)GlcNAc(b1-3)Gal(b1-4)GlcNAc(b1-3)Gal(b1-4)GlcNAc
# How it was run: as §1
# [27] = biological target: Fuc(a1-2)Gal(b1-4)GlcNAc(b1-3)GalNAc
# How it was run: as §1
# [28] = biological target: Fuc(a1-2)Gal(b1-4)GlcNAc(b1-3)[Fuc(a1-2)Gal(b1-4)GlcNAc(b1-6)]GalNAc
# How it was run: as §1
# [29] = biological target: Fuc(a1-2)Gal(b1-4)GlcNAc(b1-3)[Fuc(a1-3)[Gal(b1-4)]GlcNAc(b1-6)]Gal(b1-4)Glc
# How it was run: as §1
# [30] = biological target: Fuc(a1-2)Gal(b1-4)GlcNAc(b1-6)GalNAc
# How it was run: as §1
# [31] = biological target: Fuc(a1-2)Gal(b1-4)GlcNAc6S
# How it was run: as §1
binder,measurement,setting,value
B1,glycan array binding signal (z-score),Fuc(a1-2)Gal,0.406
same,glycan array binding signal (z-score),Fuc(a1-2)Gal(b1-3)GalNAc,-0.269
same,glycan array binding signal (z-score),[1],-0.067
same,glycan array binding signal (z-score),[2],-0.19
same,glycan array binding signal (z-score),[3],1.02
same,glycan array binding signal (z-score),[4],-0.203
same,glycan array binding signal (z-score),[5],-0.252
same,glycan array binding signal (z-score),Fuc(a1-2)Gal(b1-3)GlcNAc,-0.256
same,glycan array binding signal (z-score),[6],-0.316
same,glycan array binding signal (z-score),[7],-0.306
same,glycan array binding signal (z-score),[8],-0.317
same,glycan array binding signal (z-score),[9],-0.032
same,glycan array binding signal (z-score),[10],0.384
same,glycan array binding signal (z-score),[11],-0.335
same,glycan array binding signal (z-score),[12],-0.337
same,glycan array binding signal (z-score),[13],-0.224
same,glycan array binding signal (z-score),[14],-0.293
same,glycan array binding signal (z-score),[15],0.017
same,glycan array binding signal (z-score),[16],-0.071
same,glycan array binding signal (z-score),[17],-0.276
same,glycan array binding signal (z-score),[18],-0.322
same,glycan array binding signal (z-score),[19],0.678
same,glycan array binding signal (z-score),Fuc(a1-2)Gal(b1-4)Glc,-0.271
same,glycan array binding signal (z-score),Fuc(a1-2)Gal(b1-4)Glc6S,-0.195
same,glycan array binding signal (z-score),Fuc(a1-2)Gal(b1-4)GlcNAc,-0.215
same,glycan array binding signal (z-score),[20],-0.191
same,glycan array binding signal (z-score),[21],-0.3
same,glycan array binding signal (z-score),[22],-0.269
same,glycan array binding signal (z-score),[23],-0.214
same,glycan array binding signal (z-score),[24],-0.271
same,glycan array binding signal (z-score),[25],0.118
same,glycan array binding signal (z-score),[26],-0.193
same,glycan array binding signal (z-score),[27],0.751
same,glycan array binding signal (z-score),[28],-0.11
same,glycan array binding signal (z-score),[29],-0.356
same,glycan array binding signal (z-score),[30],0.356
same,glycan array binding signal (z-score),[31],-0.229
